Assay results: PubChem BioAssay AID1745845 (National Center for Advancing Translational Sciences (NCATS), 2022)
The campaign covered roughly 360,000 compounds. About 2,600 (0.72%) were called active. The shares of active, inactive and inconclusive entries below differ from those in the screen. Calls follow the shape of the dose curve; as a rule, active = well fitted inhibition curve with a large enough effect; inconclusive = small, poorly fitted or top-dose-only effect; inactive = no such curve, though single readings can be large or run the other way. Where the call is inconclusive, the potency comes from a doubtful curve fit.

experiment: Primary qHTS for Inhibitors of ATXN expression; conditions: HEK-293 ATXN2-luciferase reporter, luminescence, 24 h; series mostly up to 57 µM; also: nearly all actives have a fitted effect of over 55% in size
Method in brief: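 ATXN2-luciferase reporter cells (luciferase flanked by upstream and downstream ATXN2 gene portions) were treated 24 h at 37 °C with compounds at up to 57 uM. SteadyGlo luminescence gave expression; GF-AFC fluorescence gave viability.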
Potency is read from the fitted curve at half-maximal effect; tags tell the direction and shape of the fitted curve.

Potency, active:
O=C1C=C(c2c(O)ccc3ccccc23)c2ccccc2C1=O 15.8 µM
O=C1C(Nc2ccccc2)=C/C(=N/S(=O)(=O)c2cccs2)c2ccccc21 7.94 µM
Cc1cc2oc(=O)cc(Cn3ncc(Cl)c(Cl)c3=O)c2cc1Cl 25.1 µM
Cc1ccc(NC(=O)/C=C/c2ccc([N+](=O)[O-])s2)c(C)c1 8.91 µM

Potency, inactive:
CCCCn1c(N)c(N(CCOC)C(=O)c2ccc(-c3ccc([N+](=O)[O-])cc3)o2)c(=O)[nH]c1=O
CCN1CCN(C(c2cccs2)C(C)NS(=O)(=O)c2ccc(Br)cc2)CC1 (centres undefined)
O=C(/C=C/c1ccccc1)NNC(=O)C1CC1
Cc1ccccc1C(=O)Nc1ccc2nc(N3CCCCC3)cc(C)c2c1
CC(C)C[C@H]1CNC(=O)C(=O)N1C[C@@H]1CCCN1C[C@H](Cc1ccc(O)cc1)N1C[C@H](Cc2ccccc2)N(CC2CCCCC2)C(=O)C1=O
c1ccc(C[n+]2c(-c3ccccc3)csc2Nc2ccccc2)cc1
O=C(/C=C/c1cccs1)N1CCCC1
O=C(Cc1ccccc1F)Nc1nc2ccccc2[nH]1
COc1cc(SC)ccc1C(=O)NCCc1ccccc1
Cc1ccc(C)c(N(CC(=O)NC2CCCCC2)C(=O)c2snc(C(N)=O)c2N)c1
COc1cc(C(=O)NCCCc2ccccc2)cc(OC)c1OC
Cc1sc2nc(C3CC3)nc(N3CCN(S(=O)(=O)c4ccc(F)cc4)CC3)c2c1C
CCOc1ccc(-c2c(C)nn3c(C)c(C(=O)Nc4cc(C)cc(C)c4)cnc23)cc1OCC
CC(=O)NCCNc1nc(NCc2ccccc2)nc2ccsc12
CC(C)CC(NC(=O)C1CCC(C)CC1)C(=O)NCc1cccnc1 (centres undefined)
C[C@@H]1C(=O)O[C@H]2C[C@@]34[C@H]5C[C@@H](C(C)(C)C)[C@]36[C@@H](OC(=O)[C@@H]6O)O[C@@]4(C(=O)O5)[C@]21O
CC(C)CCNC(=O)C(c1ccc(O)cc1)N(C(=O)C1COc2ccccc2O1)c1cccc(O)c1 (centres undefined)
CCC(=O)N1c2ccccc2CC1C(=O)NCCN1CCN(c2cc(Cl)ccc2C)CC1 (centres undefined)

Potency, inconclusive:
NC(=S)NN=Cc1nccc2ccccc12 1.58 µM [inhibitor, full curve, poor fit]
Cc1ccc2cc(CN(Cc3ccccc3)Cc3nnnn3C3CCCC3)c(=O)[nH]c2c1 39.8 µM [inhibitor, single point]
COc1ccc(Nc2nnc(-c3ccc(C)cc3)c3ccccc23)cc1C(=O)N1CCCCC1 31.6 µM [inhibitor, single point]
CC(C)(C)c1ccc(Cn2nnc3c(=O)[nH]c(C4CCN(C(=O)Cc5cccs5)CC4)nc32)cc1 25.1 µM [inhibitor, partial curve, poor fit]
COc1cccc(N2CCN(C(=O)c3cc4c(s3)-c3ccccc3OC4)CC2)c1 25.1 µM [inhibitor, single point]
COc1cc2c3nnc(-c4ccc(F)cc4)c-3cn(Cc3ccc(F)cc3)c2cc1OC 28.2 µM [inhibitor, partial curve, poor fit]
CCc1ccccc1OCC(=O)Nc1nc(-c2cccnc2)cs1 23.8 µM [inhibitor, partial curve, poor fit]
O=C(NCC(=O)N1CCOCC1)c1ccc(Br)o1 39.8 µM [inhibitor, single point]
O=C1CSC2(C(=O)N(Cc3cccc(F)c3)c3ccccc32)N1c1cccc(C(F)(F)F)c1 (centres undefined) 22.4 µM [inhibitor, partial curve]
CCn1c2c(c(=O)n3ncc(C(=O)N4CCN(c5ccc(Cl)cc5)CC4)c13)CN(Cc1ccc(OC)cc1)CC2 7.94 µM [inhibitor, partial curve]
C[C@@H](C(=O)Nc1ccc2ccccc2c1)[C@H]1C[C@]1(C)[C@H](NC(=O)c1cccnc1)c1ccccc1 28.2 µM [inhibitor, single point]
COc1ccc(-c2ccc3[nH]c4c(c3c2)CCN2C(=O)[C@@H]([C@H](C)O)[C@@H](N(C)C(=O)Nc3ccc(F)cc3)C[C@@H]42)cc1 39.8 µM [inhibitor, single point]
COc1ccc(CNC(=O)c2cccc3c(-c4cnn(C)c4)coc23)cc1OC 35.5 µM [inhibitor, partial curve, poor fit]
Cc1c(-n2c(SCC(=O)C(C)(C)C)nc3ccccc3c2=O)c(=O)n(-c2ccccc2)n1C 1.68 µM [inhibitor, partial curve]
CN1C(=O)c2ccccc2Sc2ccc(NC(=O)c3ccc(C(F)(F)F)cc3)cc21 8.91 µM [inhibitor, single point]
COc1ccc(Cl)cc1C(Nc1cccnc1)c1ccc2cccnc2c1O (centres undefined) 31.6 µM [inhibitor, single point]
Cc1ccc(C)c(Sc2ccc(NC(=O)CCl)cc2)c1 39.8 µM [inhibitor, single point]
CCOc1ccc(S(=O)(=O)N(CC)CC(=O)NCc2ccco2)cc1C 29.9 µM [inhibitor, partial curve, poor fit]
CCN(Cc1nc2ccccc2c(=O)[nH]1)Cc1nc2ccsc2c(=O)[nH]1 8.44 µM [inhibitor, partial curve]
O=C(/C=C/c1ccco1)NC(=S)NNC(=O)c1ccco1 14.1 µM [inhibitor, partial curve, poor fit]
CSc1cccc(NC(=S)N2CCCN(Cc3cccc(Cl)c3)C2)c1 17.8 µM [inhibitor, partial curve, poor fit]
CC(C)Cn1c(N)c(C(=O)NCc2cccs2)c2nc3ccccc3nc21 35.5 µM [inhibitor, single point]
Cc1ccc(S(=O)(=O)c2c(O)cc(C)c(NS(=O)(=O)c3ccc(Cl)cc3)c2C)cc1 35.5 µM [inhibitor, single point]
COc1cc(C)nc(NCc2ccccc2)n1 20 µM [inhibitor, partial curve, poor fit]
Cc1sc2ncnc(N/N=C/c3ccccc3O)c2c1C 2 µM [inhibitor, full curve, poor fit]
c1ccc2c(-c3ccc(OCCN4CCCCC4)cc3)c(-c3ccsc3)sc2c1 28.2 µM [inhibitor, single point]
CCN(CC)c1c(C)nc2ccc(C(=O)Nc3cc(-c4ccccc4)ccc3OC)cn12 39.8 µM [inhibitor, single point]
COc1ccc(N2CCN(C(=O)c3ccc(COc4ccc([N+](=O)[O-])cc4)o3)CC2)cc1 12.6 µM [inhibitor, partial curve, poor fit]
Cc1ccccc1CNc1ccc(C(CC(N)=O)NC(=O)c2ccc(Br)cc2)cc1[N+](=O)[O-] (centres undefined) 39.8 µM [inhibitor, single point]
CCOc1ccc(Nc2c(S(=O)(=O)c3ccccc3)cnc3ccc(F)cc23)cc1 35.5 µM [inhibitor, single point]
CC(=O)N1CCc2c(sc3c2c(=O)n(CCc2ccccc2)c(=O)n3Cc2ccccc2C)C1 28.2 µM [inhibitor, single point]
O=C(C[C@H]1C/C=C\CC[C@H](Cc2ccc(F)cc2)C(=O)O[C@@H](c2ccccc2)CNC1=O)N[C@@H](CO)Cc1ccccc1 35.5 µM [inhibitor, single point]
COc1ccc(NC(=O)CSc2nc(-c3cccc(C)c3)[nH]c2-c2ccccc2)cc1OC 39.8 µM [inhibitor, single point]
CC(CC(=O)N(CCC1=CCCCC1)c1c(N)n(Cc2ccccc2)c(=O)[nH]c1=O)c1ccccc1 (centres undefined) 31.6 µM [inhibitor, partial curve, poor fit]
Clc1ccc(CN(CC2CCCO2)C(c2cccs2)c2nnnn2C2CCCC2)cc1 (centres undefined) 39.8 µM [inhibitor, single point]
Cc1oc(-c2ccccc2Cl)nc1CSc1nc2c(c(=O)[nH]1)CCC2 39.8 µM [inhibitor, single point]
COc1ccc(CC(=O)Nc2cccc(S(=O)(=O)N3CCCC3)c2)cc1OC 10 µM [inhibitor, partial curve, poor fit]
C=CC(=O)Nc1cccc(Oc2cc(Cl)nc3[nH]ccc23)c1 39.8 µM [inhibitor, partial curve, poor fit]
CN(C)S(=O)(=O)c1cccc(NC(=O)c2ccc(COc3ccccc3)cc2)c1 15.8 µM [inhibitor, single point]
Nc1c(Cl)ncnc1N/N=C/c1ccccn1 2.82 µM [inhibitor, full curve]
CCCCNC(=O)C(CC)Sc1nc2sc(C(=O)OC)c(C)c2c(=O)n1N (centres undefined) 22.4 µM [inhibitor, single point]
COc1ccccc1NC(=O)/C=C/C(N)=O 39.8 µM [inhibitor, single point]
